In one test the test system is HSkMC. Briefly: cytotoxicity call (relative viability < 0.9). The conditions noted are these: 10 µM.
The test system of another test is HepG2. Briefly: cytotoxicity call (relative viability < 0.9). The note with it: 10 µM.
The subject of another test is S. aureus RN4220. Briefly: growth inhibition call (relative growth <= 0.2). The note with it: 50 µM.

The list shows a part of the results.

Regarding `O=C(C[C@@H]1CC[C@H](NS(=O)(=O)c2ccc(F)cc2)[C@H](CO)O1)NCc1ccc(Cl)c(Cl)c1`, the cytotoxicity call in the test with HSkMC and in the test on HepG2 was “inactive” in each case. Besides, in the test with S. aureus RN4220, the growth inhibition call was “inactive”.
With `Cc1ccc(S[C@]2(C(=O)NCCCN(C)C)CC(=O)N(C3CCCCC3)[C@@H]2c2ccc(CO)cc2I)cc1`, the cytotoxicity call in the test with HSkMC and with HepG2 was “inactive” throughout. In addition, the growth inhibition call in the test with S. aureus RN4220 is “inactive”.
With `Cc1noc(C)c1NC(=O)Nc1ccc2c(c1)CC(=O)N([C@@H](C)CO)C[C@@H](C)[C@H](CN(C)S(=O)(=O)c1ccccc1)O2`, the cytotoxicity call in the test on HSkMC and with HepG2 was “inactive” each time. Further, the growth inhibition call in the test on S. aureus RN4220 is “inactive”.
With `COc1ccc(NC(=O)N(C)C[C@@H]2OCCCC[C@H](C)Oc3ccc(NC(=O)CCC(F)(F)F)cc3C(=O)N([C@H](C)CO)C[C@@H]2C)cc1`, the cytotoxicity call with HSkMC and in the test on HepG2 was “inactive” throughout. Moreover, in the test with S. aureus RN4220, the growth inhibition call is “inactive”.
Consider `C[C@H]1CCCCO[C@@H](CN(C)S(=O)(=O)c2cccs2)[C@@H](C)CN([C@@H](C)CO)C(=O)c2cc(NC(=O)Nc3ccc(F)cc3)ccc2O1`, for which the cytotoxicity call with HSkMC was “inactive”. Also, the cytotoxicity call in the test with HepG2 was “active”. In the test on S. aureus RN4220, the growth inhibition call was “inactive”.
On to `CO[C@H](CN(C)C(=O)c1ccc2c(c1)OCO2)[C@H](C)CN([C@H](C)CO)S(=O)(=O)c1ccc(C)cc1`, for which the cytotoxicity call in the test on HSkMC and with HepG2 was “inactive” throughout. In the test on S. aureus RN4220, the growth inhibition call was “inactive”.
Regarding `C[C@@H]1CCCCO[C@@H](CN(C)Cc2ccc3c(c2)OCO3)[C@H](C)CN([C@H](C)CO)C(=O)c2cc(NC(=O)CCC(F)(F)F)ccc2O1`, the cytotoxicity call in the test with HSkMC and in the test on HepG2 was “inactive” in each case. The growth inhibition call with S. aureus RN4220 is “inactive”.
Regarding `Cc1ccc(S(=O)(=O)Nc2ccc3c(c2)C(=O)N([C@H](C)CO)C[C@H](C)[C@@H](CN(C)C(=O)Nc2ccc(C(F)(F)F)cc2)OCCCC[C@H](C)O3)cc1`, the cytotoxicity call in the test with HSkMC and in the test with HepG2 was “inactive” throughout. Also, in the test with S. aureus RN4220, the growth inhibition call was “inactive”.
In the case of `COCC(=O)Nc1ccc2c(c1)C(=O)N(C)[C@H]1CC[C@@H](CC(=O)NCc3ccc(OC)cc3)O[C@H]1CO2`, the cytotoxicity call in the test on HSkMC (human skeletal muscle cells) and in the test with HepG2 was “inactive” throughout. The growth inhibition call in the test with S. aureus RN4220 was “inactive”.

The record behind these values is the antibiotic and cytotoxicity screens of Wong et al. (2023).
